At least one read-out could not be matched to a standard name with certainty.
Tested on: CyclinD1 (CCND1)
Experiment: Cyclin D1 (CCND1) percentage degradation in Calu-1 cells (Table 6)
Type: cell-based
Settings: 16 hours

**Q.** Which results are given for `CNc1ccc(C(=O)Nc2cccc(C(C)C)n2)c(NC2CC3(CC(NC(=O)CN4CCN(c5ccc(Nc6ncc7c(C)c(C(C)=O)c(=O)n(C8CCCC8)c7n6)nc5)CC4)C3)C2)n1` (stereo not drawn) [CPD-76, 2-((6-(2-(4-(6-((6-Acetyl-8-cyclopentyl-5-methyl-7-oxo-7,8-dihydropyrido[2,3-d]pyrimidin-2-yl)amino)pyridin-3-yl)piperazin-1-yl)acetamido)spiro[3.3]heptan-2-yl)amino)-N-(6-isopropylpyridin-2-yl)-6-(methylamino)nicotinamide]?
**A.** CyclinD1 Degradation (40 nM): D (degradation activity <30%); CyclinD1 Degradation (200 nM): C (30%< degradation activity <50%)

**Q.** Which results are given for `CNc1ccc(C(=O)Nc2ccc(=O)[nH]n2)c(NCCCCCNC(=O)CN2CCN(c3ccc(Nc4ncc5c(C)c(C(C)=O)c(=O)n(C6CCCC6)c5n4)nc3)CC2)n1` [CPD-77, 2-((5-(2-(4-(6-((6-Acetyl-8-cyclopentyl-5-methyl-7-oxo-7,8-dihydropyrido[2,3-d]pyrimidin-2-yl)amino)pyridin-3-yl)piperazin-1-yl)acetamido)pentyl)amino)-6-(methylamino)-N-(6-oxo-1,6-dihydropyridazin-3-yl)nicotinamide]?
**A.** CyclinD1 Degradation (40 nM): D (degradation activity <30%); CyclinD1 Degradation (200 nM): D (degradation activity <30%)

**Q.** What does the source list for `CNc1ccc(C(=O)Nc2ccc(N(C)C)nn2)c(NC2CC3(CC(NCC(=O)N4CCN(c5ccc(Nc6ncc7c(C)c(C(C)=O)c(=O)n(C8CCCC8)c7n6)nc5)CC4)C3)C2)n1` (stereo not drawn) [CPD-78, 2-((6-((2-(4-(6-((6-Acetyl-8-cyclopentyl-5-methyl-7-oxo-7,8-dihydropyrido[2,3-d]pyrimidin-2-yl)amino)pyridin-3-yl)piperazin-1-yl)-2-oxoethyl)amino)spiro[3.3]heptan-2-yl)amino)-N-(6-(dimethylamino)pyridazin-3-yl)-6-(methylamino)nicotinamide]?
**A.** CyclinD1 Degradation (40 nM): A (degradation activity >80%); CyclinD1 Degradation (200 nM): A (degradation activity >80%)

**Q.** Which “CyclinD1 Degradation (40 nM)” value does the source give for `CNc1ccc(C(=O)Nc2ccc(N(C)C)nn2)c(NC2CC(CNC(=O)CN3CCN(c4ccc(Nc5ncc6c(C)c(C(C)=O)c(=O)n(C7CCCC7)c6n5)nc4)CC3)C2)n1` (stereo not drawn) [CPD-79, 2-((3-((2-(4-(6-((6-Acetyl-8-cyclopentyl-5-methyl-7-oxo-7,8-dihydropyrido[2,3-d]pyrimidin-2-yl)amino)pyridin-3-yl)piperazin-1-yl)acetamido)methyl)cyclobutyl)amino)-N-(6-(dimethylamino)pyridazin-3-yl)-6-(methylamino)nicotinamide] here?
**A.** Its value is “A (degradation activity >80%)”.

**Q.** And the “CyclinD1 Degradation (200 nM)” value?
**A.** Its value is “A (degradation activity >80%)”.

**Q.** With `CNc1ccc(C(=O)Nc2ccc(N(C)C)nn2)c(NC2CC(CNC(=O)CCN3CCN(c4ccc(Nc5ncc6c(C)c(C(C)=O)c(=O)n(C7CCCC7)c6n5)nc4)CC3)C2)n1` (stereo not drawn) [CPD-80, 2-((3-((3-(4-(6-((6-Acetyl-8-cyclopentyl-5-methyl-7-oxo-7,8-dihydropyrido[2,3-d]pyrimidin-2-yl)amino)pyridin-3-yl)piperazin-1-yl)propanamido)methyl)cyclobutyl)amino)-N-(6-(dimethylamino)pyridazin-3-yl)-6-(methylamino)nicotinamide] as the molecule, how does the “CyclinD1 Degradation (40 nM)” value read?
**A.** Its value is “A (degradation activity >80%)”.

**Q.** And the “CyclinD1 Degradation (200 nM)” value?
**A.** Its value is “A (degradation activity >80%)”.

**Q.** Which “CyclinD1 Degradation (40 nM)” value does the source give for `CNc1ccc(C(=O)Nc2ccc(N(C)C)nn2)c(NC2CC3(CC(CNC(=O)N4CCN(c5ccc(Nc6ncc7c(C)c(C(C)=O)c(=O)n(C8CCCC8)c7n6)nc5)CC4)C3)C2)n1` (stereo not drawn) [CPD-81, 4-(6-((6-Acetyl-8-cyclopentyl-5-methyl-7-oxo-7,8-dihydropyrido[2,3-d]pyrimidin-2-yl)amino)pyridin-3-yl)-N-((6-((3-((6-(dimethylamino)pyridazin-3-yl)carbamoyl)-6-(methylamino)pyridin-2-yl)amino)spiro[3.3]heptan-2-yl)methyl)piperazine-1-carboxamide] here?
**A.** Its value is “A (degradation activity >80%)”.

**Q.** And the “CyclinD1 Degradation (200 nM)” value?
**A.** The value was “A (degradation activity >80%)”.

**Q.** Which results are given for `CNc1ccc(C(=O)Nc2ccc(N(C)C)nn2)c(NC2CC3(CC(CCC(=O)N4CCN(c5ccc(Nc6ncc7c(C)c(C(C)=O)c(=O)n(C8CCCC8)c7n6)nc5)CC4)C3)C2)n1` (stereo not drawn) [CPD-82, 2-((6-(3-(4-(6-((6-Acetyl-8-cyclopentyl-5-methyl-7-oxo-7,8-dihydropyrido[2,3-d]pyrimidin-2-yl)amino)pyridin-3-yl)piperazin-1-yl)-3-oxopropyl)spiro[3.3]heptan-2-yl)amino)-N-(6-(dimethylamino)pyridazin-3-yl)-6-(methylamino)nicotinamide]?
**A.** CyclinD1 Degradation (40 nM): A (degradation activity >80%); CyclinD1 Degradation (200 nM): A (degradation activity >80%)

**Q.** Which results are given for `CNc1ccc(C(=O)Nc2ccc(N(C)C)nn2)c(NC2CC3(CC(CCCN4CCN(c5ccc(Nc6ncc7c(C)c(C(C)=O)c(=O)n(C8CCCC8)c7n6)nc5)CC4)C3)C2)n1` (stereo not drawn) [CPD-83, 2-((6-(3-(4-(6-((6-Acetyl-8-cyclopentyl-5-methyl-7-oxo-7,8-dihydropyrido[2,3-d]pyrimidin-2-yl)amino)pyridin-3-yl)piperazin-1-yl)propyl)spiro[3.3]heptan-2-yl)amino)-N-(6-(dimethylamino)pyridazin-3-yl)-6-(methylamino)nicotinamide]?
**A.** CyclinD1 Degradation (40 nM): D (degradation activity <30%); CyclinD1 Degradation (200 nM): C (30%< degradation activity <50%)

**Q.** How did the “CyclinD1 Degradation (40 nM)” value turn out when `CNc1ccc(C(=O)Nc2ccc(N(C)C)nn2)c(NC2CC3(C2)CC(OCC(=O)N2CCN(c4ccc(Nc5ncc6c(C)c(C(C)=O)c(=O)n(C7CCCC7)c6n5)nc4)CC2)C3)n1` (stereo not drawn) [CPD-84, 2-((6-(2-(4-(6-((6-Acetyl-8-cyclopentyl-5-methyl-7-oxo-7,8-dihydropyrido[2,3-d]pyrimidin-2-yl)amino)pyridin-3-yl)piperazin-1-yl)-2-oxoethoxy)spiro[3.3]heptan-2-yl)amino)-N-(6-(dimethylamino)pyridazin-3-yl)-6-(methylamino)nicotinamide] was run?
**A.** The value was “D (degradation activity <30%)”.

**Q.** What about the “CyclinD1 Degradation (200 nM)” value of the same molecule?
**A.** The value was “D (degradation activity <30%)”.

**Q.** What does the source list for `CC(=O)c1c(C)c2cnc(Nc3ccc(N4CCN(CC(=O)NCCCCCNc5nc(NC(C)(C)C)ccc5C(=O)Nc5ccc(N(C)C)nn5)CC4)cn3)nc2n(C2CCCC2)c1=O` [CPD-85, 2-((5-(2-(4-(6-((6-Acetyl-8-cyclopentyl-5-methyl-7-oxo-7,8-dihydropyrido[2,3-d]pyrimidin-2-yl)amino)pyridin-3-yl)piperazin-1-yl)acetamido)pentyl)amino)-6-(tert-butylamino)-N-(6-(dimethylamino)pyridazin-3-yl)nicotinamide]?
**A.** CyclinD1 Degradation (40 nM): D (degradation activity <30%); CyclinD1 Degradation (200 nM): A (degradation activity >80%)

**Q.** With `CNc1ccc(C(=O)Nc2ccnc(C3CC3)c2)c(NC2CC3(CC(NC(=O)CN4CCN(c5ccc(Nc6ncc7c(C)c(C(C)=O)c(=O)n(C8CCCC8)c7n6)nc5)CC4)C3)C2)n1` (stereo not drawn) [CPD-86, 2-((6-(2-(4-(6-((6-Acetyl-8-cyclopentyl-5-methyl-7-oxo-7,8-dihydropyrido[2,3-d]pyrimidin-2-yl)amino)pyridin-3-yl)piperazin-1-yl)acetamido)spiro[3.3]heptan-2-yl)amino)-N-(2-cyclopropylpyridin-4-yl)-6-(methylamino)nicotinamide] as the molecule, how does the “CyclinD1 Degradation (40 nM)” value read?
**A.** Its value is “D (degradation activity <30%)”.

**Q.** And the “CyclinD1 Degradation (200 nM)” value?
**A.** Its value is “D (degradation activity <30%)”.

**Q.** Which results are given for `CNc1ccc(C(=O)Nc2ccc(C(F)(F)F)c(C3CC3)n2)c(NC2CC3(CC(NC(=O)CN4CCN(c5ccc(Nc6ncc7c(C)c(C(C)=O)c(=O)n(C8CCCC8)c7n6)nc5)CC4)C3)C2)n1` (stereo not drawn) [CPD-87, 2-((6-(2-(4-(6-((6-Acetyl-8-cyclopentyl-5-methyl-7-oxo-7,8-dihydropyrido[2,3-d]pyrimidin-2-yl)amino)pyridin-3-yl)piperazin-1-yl)acetamido)spiro[3.3]heptan-2-yl)amino)-N-(6-cyclopropyl-5-(trifluoromethyl)pyridin-2-yl)-6-(methylamino)nicotinamide]?
**A.** CyclinD1 Degradation (40 nM): D (degradation activity <30%); CyclinD1 Degradation (200 nM): D (degradation activity <30%)

**Q.** What does the source list for `CNc1ccc(C(=O)Nc2cccc(N(C)C)n2)c(NC2CC3(CC(NC(=O)CN4CCN(c5ccc(Nc6ncc7c(C)c(C(C)=O)c(=O)n(C8CCCC8)c7n6)nc5)CC4)C3)C2)n1` (stereo not drawn) [CPD-88, 2-((6-(2-(4-(6-((6-Acetyl-8-cyclopentyl-5-methyl-7-oxo-7,8-dihydropyrido[2,3-d]pyrimidin-2-yl)amino)pyridin-3-yl)piperazin-1-yl)acetamido)spiro[3.3]heptan-2-yl)amino)-N-(6-(dimethylamino)pyridin-2-yl)-6-(methylamino)nicotinamide]?
**A.** CyclinD1 Degradation (40 nM): B (50%< degradation activity <80%); CyclinD1 Degradation (200 nM): A (degradation activity >80%)

**Q.** Which “CyclinD1 Degradation (40 nM)” value does the source give for `CNc1ccc(C(=O)Nc2ccc(N(C)C)nn2)c(NCCC2CCN(C(=O)CN3CCN(c4ccc(Nc5ncc6c(C)c(C(C)=O)c(=O)n(C7CCCC7)c6n5)nc4)CC3)CC2)n1` [CPD-89, 2-((2-(1-(2-(4-(6-((6-Acetyl-8-cyclopentyl-5-methyl-7-oxo-7,8-dihydropyrido[2,3-d]pyrimidin-2-yl)amino)pyridin-3-yl)piperazin-1-yl)acetyl)piperidin-4-yl)ethyl)amino)-N-(6-(dimethylamino)pyridazin-3-yl)-6-(methylamino)nicotinamide] here?
**A.** The value was “B (50%< degradation activity <80%)”.

**Q.** And the “CyclinD1 Degradation (200 nM)” value?
**A.** Its value is “A (degradation activity >80%)”.

**Q.** Which “CyclinD1 Degradation (40 nM)” value does the source give for `CNc1ccc(C(=O)Nc2cccc(C#N)n2)c(NC2CC3(CC(NC(=O)CN4CCN(c5ccc(Nc6ncc7c(C)c(C(C)=O)c(=O)n(C8CCCC8)c7n6)nc5)CC4)C3)C2)n1` (stereo not drawn) [CPD-90, 2-((6-(2-(4-(6-((6-Acetyl-8-cyclopentyl-5-methyl-7-oxo-7,8-dihydropyrido[2,3-d]pyrimidin-2-yl)amino)pyridin-3-yl)piperazin-1-yl)acetamido)spiro[3.3]heptan-2-yl)amino)-N-(6-cyanopyridin-2-yl)-6-(methylanino)nicotinamide] here?
**A.** Its value is “C (30%< degradation activity <50%)”.

**Q.** And the “CyclinD1 Degradation (200 nM)” value?
**A.** The value was “B (50%< degradation activity <80%)”.

Reference: patent US20260297081A1, “COMPOUNDS AND METHODS OF TREATING CANCERS” (Cullgen Inc., priority 2023, published 2026)
